In all, about 48,000 compounds went through this assay and about 1,200 (2.5%) were called active. Roughly 2% stayed inconclusive and do not appear here.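 The calls were made as follows: active = activation of at least 60% and not above a set upper limit (about 1 call in 100 departs from these limits); inconclusive = activation of 40% to 60%, or above that upper limit; inactive = activation under 40%.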 The list shows a part of the results.

The assay concerns the target Probable G-protein coupled receptor 32 (Homo sapiens) (UniProt O75388). Description: qHTS for Agonists of Human Resolvin D1 Receptor DRV1. Also: 0% is about no effect. Particulars: CHO-K1 GPR32 beta-arrestin PathHunter luminescence, 90 min; at 76.9 µM; stronger effect = higher value; zero percent set by DMSO-only wells. A digest of the protocol: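 CHO-K1 cells stably expressing ProLink-tagged GPR32 and Enzyme Activator-tagged beta-arrestin were seeded at 2,500 cells/well overnight, exposed to compounds for 90 min at 37 °C, then read by beta-Gal complementation chemiluminescence after 1 h detection reagent.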
UniProt O75388, sequence (O75388 whole entry, looked up): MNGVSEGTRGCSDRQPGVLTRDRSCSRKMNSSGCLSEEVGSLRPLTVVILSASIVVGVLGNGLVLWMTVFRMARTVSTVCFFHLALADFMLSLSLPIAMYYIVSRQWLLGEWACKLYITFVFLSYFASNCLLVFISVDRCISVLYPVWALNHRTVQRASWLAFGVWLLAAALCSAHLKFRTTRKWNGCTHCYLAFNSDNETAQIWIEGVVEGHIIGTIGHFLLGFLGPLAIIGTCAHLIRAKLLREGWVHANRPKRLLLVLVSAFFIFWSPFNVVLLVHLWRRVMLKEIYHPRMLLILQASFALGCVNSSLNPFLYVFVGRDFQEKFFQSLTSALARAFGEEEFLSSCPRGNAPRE
Take `CCOc1ccc(C(=O)Nc2ccc(Cl)c(-c3nc4cc(C)cc(C)c4o3)c2)cc1`: the activation is inactive: -0.895%. Take `COc1ccc(-c2nc3sc(CCNC(=O)c4ccc(C(C)(C)C)cc4)c(C)n3n2)cc1`: the activation was inactive: -4.13%. To `CCOc1ccccc1C(=O)Nc1cc2c(cc1C)n(C)c(=O)c(=O)n2C` belongs inactive: -21.4%; to `CCc1ccc2occ(CC(=O)NCc3ccccc3)c2c1`, inactive: -17.7%; to `CC(C)c1ccc(NC(=O)c2cc(S(=O)(=O)NCCC3=CCCCC3)ccc2F)cc1`, inactive: -18.1%.

In the case of `COc1ccc(NC(=O)Cc2ccc(NC(=O)N3CCCCc4ccccc43)cc2)c(OC)c1`, the activation was inactive: -0.59%.

On to `CCN(CC)CCNC(=O)Cn1cnc2sc(C)c(S(=O)(=O)N3CCC(C)CC3)c2c1=O`, for which the activation is inactive: -0.716%. To `COc1ccc(CNC(=O)CN(C)S(=O)(=O)c2ccc3[nH]c4c(c3c2)CCCC4)cc1` belongs inactive: 9.45%. Under `Cn1cc(-c2cc3n(n2)CCC(=O)N3CCCC(=O)NCc2ccccc2)c2ccccc21` stands inactive: -0.0515%; under `CCOC(=O)C1CCC(CN(Cc2ccc(OC)cc2)S(=O)(=O)c2ccc(F)c(C(=O)Nc3cc(Cl)ccc3OC)c2)CC1` (stereo not drawn), inactive: 6.03%. For the compound `Cc1cc(C)cc(OC(C)C(=O)Nc2nc3c(s2)CCCC3)c1` (stereo not drawn), the activation is inactive: -14.5%. To `N#C/C(=C\c1ccc(O)c(O)c1)C(=O)NCCc1ccccc1` belongs inactive: -2.52%; to `COc1ccc(NC(=O)c2ccco2)cc1NC(=O)c1ccc(OC(C)C)cc1`, inactive: -8.57%; to `COc1cccc(/C=C(\C#N)c2nc3ccccc3c(=O)[nH]2)c1OC`, inactive: -8.31%. Under `CCCC(C(=O)Nc1cc(C)c(Cl)cc1OC)N1Cc2ccccc2C1=O` (stereo not drawn) stands inactive: -27.8%; under `COc1cc(NC(=O)Cn2cc(S(=O)(=O)N3CCC(C)CC3)c3ccccc3c2=O)cc(OC)c1OC`, inactive: -6.69%. To `CCOC(=O)C1=C(CNCc2ccc(Cl)cc2)NC(=O)NC1c1ccccc1` (stereo not drawn) belongs inactive: 19.5%; to `CC(=O)N1c2ccccc2CC1C(=O)N1CCN(c2ccccc2F)CC1` (stereo not drawn), inactive: -13.9%. Regarding `CCOC(=O)c1ccc(NC(=O)C2CCCN(c3cnccn3)C2)cc1` (stereo not drawn), the activation is inactive: -3.83%. To `COc1ccc(Oc2ncnc3c2oc2ccccc23)cc1` belongs inactive: -6.86%.

Take `COc1cn(CC(=O)Nc2cccc(C)c2)c(CN2CCCCC2)cc1=O`: the activation is inactive: -6.29%.

As to `COc1ccc(CCNC(=O)Cn2nc(-c3ccc(Cl)cc3)ccc2=O)cc1OC`, the activation was inactive: -7.43%. Consider `CCOc1ccc(Nc2ncnc3onc(-c4ccc(Cl)cc4)c23)cc1`, for which the activation was inactive: 17.3%. Turning to `CC(=O)c1ccc(N2CCN(S(=O)(=O)c3ccc(-c4cnc(C5CC5)o4)cc3)CC2)cc1`, the activation was inactive: -46.3%.

`Cc1ccc(OCC(=O)Nc2ccc(C(=O)OCc3cc(=O)n4ccsc4n3)cc2)cc1C`: the activation is inactive: 37.2%. Turning to `Cc1nc2sccn2c(=O)c1S(=O)(=O)Nc1cccc(Cl)c1C`, the activation was inactive: -7.83%. To `CCn1cc(/C=C(\NC(=O)c2ccc(OC)c(OC)c2)C(=O)NCCCn2ccnc2)c2ccccc21` belongs inactive: -1.95%; to `CCOC(=O)c1cc(-c2ccc(OC)cc2)n(CCC(=O)NCCc2ccc(OCC)c(OCC)c2)c1C`, inactive: -33.2%. To `Cc1ccc(NC(=O)N2CCC(CN3CCCCC3)CC2)c(Cl)c1` belongs inactive: 4.65%; to `O=c1[nH]c(=O)c2nc3ccccc3nc2[nH]1`, inactive: 7.04%; to `CC(C)(C)OC(=O)N1CCC(c2c(C(=O)N3CCN(c4ncccn4)CC3)cnn2-c2ccc(F)cc2)CC1`, inactive: -6.44%. To `CCOC(=O)c1c(-c2ccc(OC)cc2)oc2ccc(OCc3ccc(F)cc3F)cc12` belongs inactive: 9.34%. As to `Cc1ccccc1Nc1nnc(-c2ccc(C)c(S(=O)(=O)NCC3CCCO3)c2)c2ccccc12` (stereo not drawn), the activation is inactive: -49.1%. Regarding `Cc1ccc(C2C(=O)N(C3CCCCCC3)CC(=O)N2CCC2=CCCCC2)cc1` (stereo not drawn), the activation is inactive: -14.4%.

Consider `Cc1ccc(N2CCN(C(=O)CCS(=O)(=O)c3cc4c(cc3Cl)NC(=O)CO4)CC2)c(C)c1`, for which the activation was inactive: 38.6%.

Take `CC1CCN(c2nc3c(S(=O)(=O)c4cccc(Cl)c4)nnn3c3ccsc23)CC1`: the activation was inactive: -20.2%. Under `COc1cc([N+](=O)[O-])ccc1NC(=O)N1CCC2(CC1)Nc1cc(F)ccc1-n1cccc12` stands inactive: -30.9%; under `CN(C)c1ccc(CNC(=O)C2CCN(C(=O)c3ccc(-n4ccc5ccccc54)s3)CC2)cc1`, inactive: -16.5%.

Regarding `COc1cccc(C(=O)c2cn(CC(=O)Nc3cccc(Cl)c3C)c3nc(C)ccc3c2=O)c1`, the activation was inactive: -9.24%. Regarding `CCCN1Cc2cccc(C(=O)Nc3ccc(OC)cc3OC)c2C1=O`, the activation is inactive: 39%. To `Cc1ccc(NC(=O)N2CCc3c([nH]c4ccccc34)C2c2ccccc2F)c(Cl)c1` (stereo not drawn) belongs inactive: -23.5%; to `O=C(Cn1c(=O)c2sccc2n(CC(=O)Nc2ccc(Cl)cc2Cl)c1=O)NCCc1ccccc1`, inactive: -21.6%. To `CSc1ncc(C(=O)NCc2cccc(Br)c2)c(-c2ccccc2)n1` belongs inactive: -6.48%. To `COCCN1C(=O)c2oc3ccc(C)cc3c(=O)c2C1c1ccc(C(=O)OC)cc1` (stereo not drawn) belongs inactive: -1.54%; to `Cc1ccc(C)c(NS(=O)(=O)c2ccc3c(c2)CCCN3C(=O)C2CCC2)c1`, inactive: -0.0006%; to `O=C(NCc1ccccc1F)C(=O)NCC(c1ccco1)S(=O)(=O)c1ccccc1` (stereo not drawn), inactive: -12.5%. As to `Cc1ccc(C(C)C)c(OCC(=O)Nc2ccc(-c3nc4ncccc4o3)cc2C)c1`, the activation was inactive: -2.28%.

Turning to `COc1ccc(CNS(=O)(=O)c2ccc3c(c2)C(C)(C)C(=O)N3C)cc1OC`, the activation was inactive: 3.99%. Under `COC(=O)c1c(NC(=O)CCCOc2ccccc2C)sc2c1CCC2` stands inactive: -5.51%; under `COc1ccc(C(C(=O)NCc2ccccc2)N(C(=O)Cn2nnc3ccccc32)c2ccc(OC)cc2)cc1` (stereo not drawn), inactive: -8.11%; under `Cc1ccc(CCNC(=O)c2ccc(CNS(=O)(=O)c3ccc(F)cc3)cc2)cc1`, inactive: -13.5%. To `O=C1CC(=O)Nc2cc(S(=O)(=O)Nc3cccc(Br)c3)ccc2N1` belongs inactive: -5.71%; to `COC(=O)c1cc2sc(Cl)cc2n1Cc1nc(-c2ccccc2F)oc1C`, inactive: 2.79%. Under `Cc1c(C(=O)Nc2ccccc2Cl)oc2ccc(S(=O)(=O)N3CCCCCC3)cc12` stands inactive: -12.2%. As to `CC(=O)N1CCc2c(sc(NC(=O)CSc3ccc(C)cc3)c2-c2nc3ccccc3s2)C1`, the activation is inactive: -23.9%. To `Cc1cc(C)cc(NC(=O)Nc2c[nH]c(=O)[nH]c2=O)c1` belongs inactive: 19.8%; to `Cc1cc(C)c2c(n1)SCC(=O)N2CC(=O)Nc1c(C)cccc1C`, inactive: 1.99%. Take `COc1ccc(OC)c(CCNc2ncnc3onc(C)c23)c1`: the activation is inactive: 25.2%. In the case of `CCn1c(CN2CCC(C)CC2)nc2cc(NC(=O)c3cccc([N+](=O)[O-])c3)ccc21`, the activation is inactive: 0.323%. To `COc1ccc(NS(=O)(=O)c2cc3c4c(c2)CC(=O)N4CCC3)cc1Cl` belongs inactive: -16.1%; to `O=C(NC1(C(F)(F)F)N=C(c2ccccc2)N(C2CCCCC2)C1=O)c1ccccc1F` (stereo not drawn), inactive: -13.6%; to `COc1ccc(C(=O)Nc2ccc3c(c2)N(C)C(=O)c2ccccc2S3)cc1OC`, inactive: -2.83%. Under `CCOC(=O)c1cnc2c(C)cc(C)cc2c1Nc1ccc(N2CCOCC2)cc1` stands inactive: 14.9%; under `Cc1ccc(-n2nc(C)c(C(=O)NCCCN3CCN(c4ccccc4F)CC3)c2-n2cccc2)cc1`, inactive: 11.3%.

In the case of `CN(Cc1ccccc1)C(=O)c1ccc2c(c1)N(Cc1ccc(Cl)cc1)C(=O)c1ccccc1S2=O` (stereo not drawn), the activation is inactive: -3.09%. Take `CCCOc1ccccc1C(=O)Nc1nc2c(s1)CCCC2`: the activation was inactive: -33%. Under `Cc1oc(-c2ccc(Cl)cc2)nc1CN1CCCC(C(=O)NCc2ccc(Cl)cc2)C1` (stereo not drawn) stands inactive: 8.94%; under `CC(C)c1ccc(NC(=O)CSC2=Nc3ccccc3C3=NC(CC(=O)NCc4ccco4)C(=O)N23)cc1` (stereo not drawn), inactive: -26.7%.

On to `O=c1c2ccccc2n2c(-c3cccc(F)c3)nnc2n1Cc1ccccc1`, for which the activation was inactive: -4.79%. For `COc1ccc(NC(=O)c2ccc3c(=O)n4nc(Nc5ccccc5C)sc4nc3c2)cc1`, the activation was inactive: -13.5%. To `Cn1c(=O)c2c(c3ccccc31)OC(=O)CC2c1ccccc1` (stereo not drawn) belongs inactive: 1.09%; to `CCc1ccccc1N1CC(c2nc3ccccc3n2CCC2CCCCC2)CC1=O` (stereo not drawn), inactive: 33.5%.

Regarding `Cc1nnc(N2CCC(C(=O)NCc3cccc(Cl)c3)CC2)c2nn(-c3ccccc3)c(C)c12`, the activation was inactive: 20%. To `COc1cccc(NS(=O)(=O)c2ccc3[nH]cc(C(=O)N(C)Cc4ccco4)c(=O)c3c2)c1` belongs inactive: 24.7%.

As for `C1=CC2C3C=CC(C3)C2C1` (stereo not drawn), the activation was inactive: -17.6%. To `CCOC(=O)N1CCN(C(=O)c2cnn(-c3cccc(C)c3)c2-n2cccc2)CC1` belongs inactive: -5.71%; to `COc1ccc(OC)c(NC(=O)c2cc3c(=O)n4cccc(C)c4nc3n2C)c1`, inactive: 0.679%.

Turning to `Cc1cccc(N2CCN(C(=O)c3c4c(nc5ccccc35)C(=O)N(C3CCCCC3)C4)CC2)c1C`, the activation was inactive: -9.26%.

As for `CN(C)c1ccc(-c2nc3ccccn3c2Nc2ccc3c(c2)OCCO3)cc1`, the activation is inactive: -30.1%. Under `Cc1ccc(N(C)C(=O)c2noc3c2CCCCC3)cc1C` stands inactive: -7.06%; under `Cc1ccc(CC(=O)NCc2nc(-c3cccc(C)c3)no2)cc1`, inactive: -15.7%. Under `Cc1cccc(C)c1OCc1cc(=O)n2ccsc2n1` stands inactive: -8.92%; under `COc1cccc(NC(=O)CSc2nnc(NC(=O)NC3CCCCC3)s2)c1`, inactive: 0.22%.

The values above are taken from PubChem BioAssay AID1346428 (National Center for Advancing Translational Sciences (NCATS), 2018).
